Measured values from PubChem BioAssay AID1347073 (National Center for Advancing Translational Sciences (NCATS), 2019).
Among all 45,000 compounds or so, about 200 (0.44%) were called active. Roughly 7% stayed inconclusive and do not appear here. Calls come from the whole dose curve; as a rule, active = well fitted activation curve with a large enough effect; inconclusive = small, poorly fitted or top-dose-only effect; inactive = no such curve, though single readings can be large or run the other way. The list shows a part of the results.

Experiment: qHTS of TDP-43 Inhibitors: NCGC Sytravon Library Screen; note: 0% is about no effect; nearly all actives have a fitted effect of over 55% in size
Details: yeast TDP-43 toxicity rescue, BacTiter-Glo growth, 24 h; series mostly up to 46.1 µM; growth rescue (activation): at the top concentration
Outline: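 TDP-43-expressing yeast, pregrown in raffinose, seeded at OD600 0.02 in galactose medium with compound for 24 hr at 30 deg C. Growth read by BacTiter-Glo luminescence, so rescue of toxicity appears as activation.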

SMILES | growth rescue (activation)
COc1ccc(N2CC(C(=O)Nc3ccccc3C(=O)NC3CC3)CC2=O)cc1 (centres undefined) | inactive: 5.68%
Cc1cccc(NC(=O)c2sc(NC(=O)COc3ccccc3)c(C#N)c2C)c1C | inactive: 5.66%
Cc1ccc(NC(=O)c2ccc3nccnc3c2)c(C)c1 | inactive: 12.1%
Cn1nnnc1SCC(=O)Nc1ncc(C(F)(F)F)cc1Cl | inactive: -0.308%
Cc1cc(O)ccc1-c1cccc2nccn12 | inactive: -0.0471%
CC(C)(C)c1cc(N2CCOCC2)n2ncc(-c3ccc(Cl)cc3)c2n1 | inactive: 17.6%
CCCCc1nc2c(C)c(N)cnc2n1Cc1cccc([N+](=O)[O-])c1 | inactive: 5.68%
CCCCCCC(C)n1[nH]c(=O)cc1N (centres undefined) | inactive: -16%
CCc1cc2c(=O)c(-c3nc(C)cs3)coc2cc1OC(C)C(=O)NCCO (centres undefined) | inactive: -15.5%
Cc1cc(C(=O)NCc2cc(C(=O)O)co2)co1 | inactive: 10.2%
O=C(Cc1ccccc1)NNS(=O)(=O)c1ccc([N+](=O)[O-])cc1 | inactive: 9.81%
CC(=O)N1CCOCCOCCN(C(C)=O)CCOCC1 | inactive: 10.6%
Clc1c(-c2ccccc2)nc2ccccn12 | inactive: 0.877%
O=C1COc2ccc(C(=O)COC(=O)c3ccccc3F)cc2N1 | inactive: 12.9%
Cc1cccc(-c2c3c(=O)n(C)c(=O)n(C)c3cn2CCO)c1 | inactive: -9.65%
Cc1sc2ncnc(NC(C)C(=O)O)c2c1C (centres undefined) | inactive: 3.18%
CCOC(=O)c1[nH]c(C)c(C(=O)NCC2CCCO2)c1C (centres undefined) | inactive: 1.2%
CCN(CC)S(=O)(=O)c1cccc(NC(=O)COC(=O)c2cncc(Br)c2)c1 | inactive: 20%
CCc1cc2cccc(C)c2nc1SCC(=O)NC1CCCC1 | inactive: 6.82%
Cc1ccc(CNC(=O)c2sc3nc[nH]c(=O)c3c2C)cc1 | inactive: 2.43%
Cc1ccc(NC(=O)CN2C(=O)C3CC=CCC3C2=O)cc1S(=O)(=O)N1CCOCC1 (centres undefined) | inactive: 12.9%
CC(=O)Nc1nnc(SCC(=O)N2CCc3ccccc32)s1 | inactive: 8.55%
O=C(CN1c2cccc3cccc(c23)S1(=O)=O)NCc1ccc(F)cc1 | inactive: -25.5%
Cc1ccc(-c2ccc(S(=O)(=O)NCC3CCCO3)cc2)cc1 (centres undefined) | inactive: 18.9%
Cc1ccc(-c2nc(CN(Cc3cnn(C)c3)C(C)C)c(C)o2)o1 | inactive: 2.52%
Cc1c(-c2csc(N)n2)c2ccccc2n1C | inactive: -21.3%
COc1ccc(NC(=O)C(C)N2C(=O)c3ccccc3C2=O)cc1S(=O)(=O)N1CCOCC1 (centres undefined) | inactive: 17%

SMILES | growth rescue (activation)
COc1ccc2cc(C(=O)/C=C/c3cc(OC)c(OC)c(OC)c3)ccc2c1 | inactive: 14.3%
CC(C)NS(=O)(=O)c1ccc(CCC(=O)NCc2ccncc2)cc1 | inactive: 0.479%
Cc1ccc(CNC(=O)Nc2nnc([C@H]3C[C@H](O)[C@@H](CO)O3)s2)cc1 | inactive: 4.66%
CN(C)S(=O)(=O)N(CC(=O)NCCSCc1ccccc1)c1ccccc1 | inactive: 12.4%
CCN(CC)C(=O)c1cc(-c2ccc3c(c2)OCO3)on1 | inactive: 6.3%
CC1(C(=O)O)CCCN1C(=O)c1ccco1 (centres undefined) | inactive: 3.02%
CC(=O)c1c(C)[nH]c(C(=O)CSc2nnc(-c3ccccc3)o2)c1C | inactive: 9.21%
CC(CC(=O)Nc1ccc(C(N)=O)cc1)c1ccccc1 (centres undefined) | inactive: -1.47%
CC(C)c1nc(SCC(=O)Nc2c[nH]c(=O)[nH]c2=O)c2cnn(-c3ccccc3)c2n1 | inactive: 6.47%
O=C(O)c1ccc(-n2nncc2-c2ccccc2)cc1 | inactive: -7.43%
CC(C)(C)c1cc(N)n2nc(C(C)(C)C)cc2n1 | inactive: 6.28%
COc1ccc(OCC(=O)N2CC3(C)CC2CC(C)(C)C3)cc1 (centres undefined) | inactive: 0.003%
Oc1nc(Nc2ccc(F)cc2)sc1/C=C1\C=Nc2ccccc21 | inactive: 3.09%
Cc1cc(=O)n2[nH]c(SCc3ccccc3Cl)nc2n1 | inactive: -1.83%
O=[N+]([O-])c1ccc(NCCNS(=O)(=O)c2ccccc2)cc1 | inactive: -0.362%
COc1cccc(CC(=O)Nc2ccc3c(c2)c(=O)n(C)n3-c2ccc(C(C)(C)C)cc2)c1 | inactive: 6.21%
O=C(c1ccc(N2C(=O)C3C4c5ccccc5C(c5ccccc54)C3C2=O)cc1)N1CCOCC1 (centres undefined) | inactive: 0.39%
FC(F)(F)c1ccc(N=Cc2sc(N3CCOCC3)nc2-c2ccccc2)cc1 | inactive: 6.38%
Cc1cc2oc(=O)sc2cc1NS(=O)(=O)c1ccccc1 | inactive: 35.7%
CCC(C)N1C(=O)CCC1C(=O)NCCc1ccc(Cl)cc1 (centres undefined) | inactive: 3.68%
Cc1cccc(C(=O)Nc2ccc(NC(=O)CN3CCOCC3)cc2)c1 | inactive: -7.08%
CC1=C(C(=O)Nc2ccc(C(=O)NCCC(C)C)cc2)SCCO1 | inactive: 12.7%
CC(=O)c1cn(N(C)c2ncc(C(F)(F)F)cc2Cl)c(=O)[nH]c1=O | inactive: -19.6%
Cc1cc(NC(=O)Nc2ccccc2F)ccc1Br | inactive: -6.3%
CC(=O)Nc1cccc(C(=O)N2CCN(S(=O)(=O)Cc3ccccc3)CC2)c1 | inactive: -3.84%
COc1ccc(N2C3=C(C(=O)CC(C)(C)C3)C(c3cnn(C)c3)C3=C2CC(C)(C)CC3=O)cc1 | inactive: -4.35%
CCN(c1ccccc1)S(=O)(=O)c1cc(C(=O)Nc2ccc(F)c(F)c2)ccc1F | inactive: 4.63%
